{"source": "PubChem BioAssay AID686979", "about": "(National Center for Advancing Translational Sciences (NCATS), 2013)", "note": "Where “and” joins values, the source holds several entries; their conditions need not be identical. Identical values can stand only once. Among all 420,000 compounds or so, about 50,000 (12%) were called active. Inconclusive means that the source gave no clear call. Such entries were picked first, then a sample of the others. Calls follow the shape of the dose curve; as a rule, active = well fitted inhibition curve with a large enough effect; inconclusive = small, poorly fitted or top-dose-only effect; inactive = flat fitted curve, though single readings scatter. Potencies of inconclusive entries are left out as doubtful fits. % is scaled to controls: 0 for no effect and ±100 for the full control effect; potency is read from the fitted curve at half-maximal effect; tags tell the direction and shape of the fitted curve.", "data": [{"assay": "qHTS for Inhibitors of human tyrosyl-DNA phosphodiesterase 1 (TDP1): qHTS in cells in presence of CPT; also: nearly all actives have a fitted effect of over 55% in size", "settings": "chicken DT40 Tdp1-/-;hTDP1 cells + 20 nM CPT, ATP luminescence, 48 h; activity change, negative = growth inhibition: at 46.2 µM (top of the series) unless noted", "method_in_brief": "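Cell growth measured by CellTiter-Glo luminescence after a minimum 48 h, 37 C compound exposure with 20 nM CPT in Tdp1-knockout DT40 cells stably expressing hTDP1, seeded 400/well; qHTS titration format.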", "values": [{"smiles": "O=C(c1ccc(-c2ccc([N+](=O)[O-])cc2)o1)N1CCCCC1", "Potency": "inconclusive [inhibitor, single point]"}, {"smiles": "CC1(C(=O)NC2CCCCC2)Cc2ccccc2C(=O)N1Cc1ccc(Cl)cc1", "note": "(configuration not stated)", "Potency": "inconclusive [inhibitor, single point]"}, {"smiles": "CC(=O)N1CCc2c(sc(NC(=O)CCS(=O)(=O)c3ccc(C)cc3)c2C(N)=O)C1", "Potency": "inconclusive [inhibitor, single point]"}, {"smiles": "CCOC(=O)c1cnc2ccccc2c1NCc1ccco1", "Potency": "inconclusive [inhibitor, partial curve, poor fit]"}, {"smiles": "COc1cccc(C2C(C(=O)Nc3ccc(Cl)cc3)=C(C)Nc3c(C(=O)Nc4ccccc4)cnn32)c1OC", "note": "(configuration not stated)", "Potency": "active: 23.1 µM"}, {"smiles": "O=C(CSc1nc2ccc(NC(=O)C3CCCCC3)cc2s1)NCC1CCCO1", "note": "(configuration not stated)", "Potency": "inconclusive [inhibitor, single point]"}, {"smiles": "Cn1c(=O)c2c(nc(SCC(=O)Nc3ccc(F)cc3F)n2Cc2ccccc2)n(C)c1=O", "Potency": "inconclusive [inhibitor, partial curve]"}, {"smiles": "Cc1c(CCO)sc[n+]1CC(=O)OCCC12CC3CC(CC(C3)C1)C2", "Potency": "inconclusive [inhibitor, single point]"}, {"smiles": "Cc1c(C)n(Cc2ccc(F)cc2)c2ccc(C(=O)N3CCN(c4ccc(Cl)cc4)CC3)cc12", "Potency": "active: 18.4 µM"}, {"smiles": "N/C(=N\\OC(=O)CCCC(=O)O)c1ncc(C(F)(F)F)cc1Cl", "activity change, negative = growth inhibition": "inactive: -7.67%"}, {"smiles": "COc1ccc(/C=C/C(=O)Nc2ccc3nc(N4CCC(C)CC4)cc(C)c3c2)cc1OC", "Potency": "active: 4.11 µM"}, {"smiles": "CN(C)c1ccc(C(=O)OCC(=O)c2ccc[nH]2)cc1", "activity change, negative = growth inhibition": "inactive: -3.39%"}, {"smiles": "O=C(Cc1c(F)cccc1Cl)N(Cc1ccccc1)c1ccccn1", "Potency": "inconclusive [inhibitor, single point]"}, {"smiles": "O=C(CN1CCN(c2ncccn2)CC1)N1CCCc2c1c(=O)oc1ccc(O)cc21", "Potency": "inconclusive [inhibitor, single point]"}, {"smiles": "O=C(NCc1cccc(C(F)(F)F)c1)c1cccc(S(=O)(=O)N2CCN(Cc3ccccc3)CC2)c1", "Potency": "inconclusive [inhibitor, single point]"}, {"smiles": "Cc1cccnc1NC(=O)c1ccc(S(=O)(=O)N2CCCC2)cc1", "activity change, negative = growth inhibition": "inactive: 0.852%"}, {"smiles": "CC1CCCCN1S(=O)(=O)c1ccc(F)c(C(=O)Nc2ccccc2C(F)(F)F)c1", "note": "(configuration not stated)", "Potency": "inconclusive [inhibitor, single point]"}, {"smiles": "COC(=O)C1=C(C)N(CC2CC2)C(=NCc2cccc(Cl)c2)N[C@H]1c1ccccc1", "Potency": "active: 16.4 µM"}, {"smiles": "CCOC(=O)C1CCN(c2cc3c(cc2NC(=O)c2ccc(OC)c(OC)c2)n(C)c(=O)n3C)CC1", "Potency": "active: 5.8 µM and active: 9.2 µM"}, {"smiles": "COCCCn1cnc2c(c1=O)c1nc3ccccc3nc1n2-c1ccccc1", "Potency": "inconclusive [inhibitor, partial curve]"}, {"smiles": "CCCOc1ccc(-c2nc(OC)c3ccccc3n2)cc1", "activity change, negative = growth inhibition": "inactive: 0.0124%"}, {"smiles": "Oc1ccc(/C=N/n2c(-c3ccccc3)n[nH]c2=S)cc1Br", "Potency": "inconclusive [inhibitor, single point]"}, {"smiles": "COc1ccc(C)c2sc(N(CCN(C)C)C(=O)/C=C/c3cccs3)nc12", "Potency": "inconclusive [inhibitor, single point]"}, {"smiles": "CC(=O)c1ccccc1Oc1nc(CN2CCOCC2)nc2scc(-c3cccs3)c12", "Potency": "inconclusive [inhibitor, single point]"}, {"smiles": "CCCCCCCN1C(Nc2ccccc2)=NC[C@@H]1Cc1ccccc1", "Potency": "inconclusive [inhibitor, single point]"}, {"smiles": "COc1ccc2cc3cc(C(=O)Nc4ccccc4N4CCN(C)CC4)oc3nc2c1", "Potency": "active: 4.61 µM"}, {"smiles": "COC(=O)C1=C(C(=O)OC)SC(=C2C(=S)C(C)(C)N(C(=O)C3CC3)c3ccccc32)S1", "Potency": "inconclusive [inhibitor, single point]"}, {"smiles": "CCC(C)NC(=O)Cn1c(=O)n(CCCC(=O)NCc2ccc(C)cc2)c(=O)c2ccccc21", "note": "(configuration not stated)", "activity change, negative = growth inhibition": "inactive: -5.13%"}, {"smiles": "CN(CC(=O)Nc1ccc(Cl)c(C(F)(F)F)c1)C(=O)COc1cccc2cccnc12", "Potency": "inconclusive [inhibitor, single point]"}, {"smiles": "CCOc1cc2sc(N3CCC(C(=O)Nc4ccc(C(C)C)cc4)CC3)nc2cc1Br", "Potency": "inconclusive [inhibitor, single point]"}, {"smiles": "CCOc1ccc(NC(=O)CN(c2ccccc2OCC)S(=O)(=O)c2ccccc2)cc1", "Potency": "inconclusive [inhibitor, single point]"}, {"smiles": "NC(=O)c1cc(Cl)ccc1OCC(=O)N1CCCc2ccccc21", "Potency": "inconclusive [inhibitor, partial curve]"}, {"smiles": "CC(=O)N1[C@H](C)C=C[C@]1(Cc1ccccc1)C(=O)NCc1cc(F)cc(C(F)(F)F)c1", "Potency": "inconclusive [inhibitor, single point]"}, {"smiles": "CON(C)C(=O)CC(CN(Cc1ccccc1)C(=O)OC(C)(C)C)c1ccc(Cl)cc1", "note": "(configuration not stated)", "Potency": "active: 23.1 µM"}, {"smiles": "CCn1c(SCc2ccc(OC)c(F)c2)nc2ccccc2c1=O", "Potency": "inconclusive [inhibitor, single point]"}, {"smiles": "O=C(CCC(=O)N1CCN(c2ccccc2F)CC1)N1CCN(c2ccccc2)CC1", "Potency": "inconclusive [inhibitor, single point]"}, {"smiles": "CCC(CC)C(=O)NCc1ccc2c(c1)cc(C)n2C", "Potency": "active: 10.3 µM"}, {"smiles": "C=CCSc1nsc(N)n1", "activity change, negative = growth inhibition": "inactive: 7.17%"}, {"smiles": "COc1ccc(CNC(=O)C2Cc3c(-c4ccccc4Oc4ccccc4)ccnc3O2)cc1OC", "note": "(configuration not stated)", "Potency": "active: 18.4 µM"}, {"smiles": "Clc1ccc(COc2ccccn2)cc1Cl", "Potency": "inconclusive [inhibitor, single point]"}, {"smiles": "COc1ccc(CN2C[C@@H](CO)O[C@@H](n3cnc4c(N5CCN(c6ccccc6)CC5)ncnc43)C2)cc1", "Potency": "inconclusive [inhibitor, single point]"}, {"smiles": "CCCCCNC(=O)C(c1ccccc1F)n1c(=O)c(-c2ccco2)nc2ccccc21", "note": "(configuration not stated)", "Potency": "inconclusive [inhibitor, partial curve, poor fit]"}]}]}
